# The list shows a part of the results.
# Experiments:
# Test in all cases: glycan array binding signal (z-score within array); higher = stronger binding
# Settings in all cases: glycan notation: IUPAC condensed, linker removed
# [1] = biological target: Gal(b1-3)[Fuc(a1-4)]GlcNAc(b1-3)Gal(b1-4)[Fuc(a1-3)]GlcNAc
# Procedure, shortened: (§1)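 Glycan array data came from 3228 arrays in the Consortium for Functional Glycomics database, and only arrays with an available protein sequence were kept. Glycan names were put into IUPAC-condensed notation, and columns mapping to the same glycan were averaged. The binding signal is a within-array Z-score, averaged across arrays of one protein sequence run at different concentrations or buffers and across linkers. A negative Z-score can be read as non-binding.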
# [2] = biological target: Gal(b1-3)[GlcNAc(b1-6)]GalNAc
# Procedure, shortened: as §1
# [3] = biological target: Gal(b1-3)[Neu5Ac(a2-6)]GalNAc
# Procedure, shortened: as §1
# [4] = biological target: Gal(b1-3)[Neu5Ac(a2-6)]GlcNAc(b1-6)Gal(b1-4)Glc
# Procedure, shortened: as §1
# [5] = biological target: Gal(b1-3)[Neu5Ac(b2-6)]GalNAc
# Procedure, shortened: as §1
# [6] = biological target: Gal(b1-4)GalNAc(a1-3)[Fuc(a1-2)]Gal(b1-4)GlcNAc
# Procedure, shortened: as §1
# [7] = biological target: Gal(b1-4)GalNAc(b1-3)[Fuc(a1-2)]Gal(b1-4)GlcNAc
# Procedure, shortened: as §1
# Gal(b1-4)Glc = biological target: Gal(b1-4)Glc
# Procedure, shortened: as §1
# Gal(b1-4)Glc6S = biological target: Gal(b1-4)Glc6S
# Procedure, shortened: as §1
# Gal(b1-4)GlcNAc = biological target: Gal(b1-4)GlcNAc
# Procedure, shortened: as §1
# [8] = biological target: Gal(b1-4)GlcNAc(b1-2)Man(a1-3)[Gal(b1-4)GlcNAc(b1-2)Man(a1-6)]Man(b1-4)GlcNAc(b1-4)GlcNAc
# Procedure, shortened: as §1
# [9] = biological target: Gal(b1-4)GlcNAc(b1-3)Gal(b1-4)Glc
# Procedure, shortened: as §1
# [10] = biological target: Gal(b1-4)GlcNAc(b1-3)Gal(b1-4)GlcNAc
# Procedure, shortened: as §1
# [11] = biological target: Gal(b1-4)GlcNAc(b1-3)Gal(b1-4)GlcNAc(b1-3)Gal(b1-4)GlcNAc
# Procedure, shortened: as §1
# [12] = biological target: Gal(b1-4)GlcNAc(b1-3)Gal(b1-4)[Fuc(a1-3)]GlcNAc(b1-3)Gal(b1-4)[Fuc(a1-3)]GlcNAc
# Procedure, shortened: as §1
# [13] = biological target: Gal(b1-4)GlcNAc(b1-3)GalNAc
# Procedure, shortened: as §1
# [14] = biological target: Gal(b1-4)GlcNAc(b1-3)[Gal(b1-4)GlcNAc(b1-6)]GalNAc
# Procedure, shortened: as §1
# [15] = biological target: Gal(b1-4)GlcNAc(b1-6)Gal(b1-4)GlcNAc(b1-6)GalNAc
# Procedure, shortened: as §1
# [16] = biological target: Gal(b1-4)GlcNAc(b1-6)GalNAc
# Procedure, shortened: as §1
# [17] = biological target: Gal(b1-4)GlcNAc(b1-6)[Gal(b1-3)]GalNAc
# Procedure, shortened: as §1
# Gal3S(b1-3)GalNAc = biological target: Gal3S(b1-3)GalNAc
# Procedure, shortened: as §1
# Gal3S(b1-3)GlcNAc = biological target: Gal3S(b1-3)GlcNAc
# Procedure, shortened: as §1
# [18] = biological target: Gal3S(b1-3)[Fuc(a1-4)]GlcNAc
# Procedure, shortened: as §1
# Gal3S(b1-4)Glc = biological target: Gal3S(b1-4)Glc
# Procedure, shortened: as §1
# Gal3S(b1-4)Glc6S = biological target: Gal3S(b1-4)Glc6S
# Procedure, shortened: as §1
# Gal3S(b1-4)GlcNAc = biological target: Gal3S(b1-4)GlcNAc
# Procedure, shortened: as §1
# Gal3S(b1-4)GlcNAc6S = biological target: Gal3S(b1-4)GlcNAc6S
# Procedure, shortened: as §1
# Gal3S6S(b1-4)GlcNAc = biological target: Gal3S6S(b1-4)GlcNAc
# Procedure, shortened: as §1
# Gal3S6S(b1-4)GlcNAc6S = biological target: Gal3S6S(b1-4)GlcNAc6S
# Procedure, shortened: as §1
# Gal4S(b1-4)GlcNAc = biological target: Gal4S(b1-4)GlcNAc
# Procedure, shortened: as §1
# Gal4S6S(b1-4)GlcNAc = biological target: Gal4S6S(b1-4)GlcNAc
# Procedure, shortened: as §1
# Gal6S(b1-4)Glc = biological target: Gal6S(b1-4)Glc
# Procedure, shortened: as §1
# Gal6S(b1-4)Glc6S = biological target: Gal6S(b1-4)Glc6S
# Procedure, shortened: as §1
binder,measurement,setting,value
"CLEC-6 (Homo sapiens), Q8WXI8 (protein) MGLEKPQSKLEGGMHPQLIPSVIAVVFILLLSVCFIASCLVTHHNFSRCKRGTGVHKLEHHAKLKCIKEKSELKSAEGSTWNCCPIDWRAFQSNCYFPLTDNKTWAESERNCSGMGAHLMTISTEAEQNFIIQFLDRRLSYFLGLRDENAKGQWRWVDQTPFNPRRVFWHKNEPDNSQGENCVVLVYNQDKWAWNDVPCNFEASRICKIPGTTLN",glycan array binding signal (z-score),[1],-0.169
same,glycan array binding signal (z-score),[2],-0.198
same,glycan array binding signal (z-score),[3],-0.072
same,glycan array binding signal (z-score),[4],-0.241
same,glycan array binding signal (z-score),[5],-0.108
same,glycan array binding signal (z-score),[6],-0.293
same,glycan array binding signal (z-score),[7],-0.032
same,glycan array binding signal (z-score),Gal(b1-4)Glc,-0.238
same,glycan array binding signal (z-score),Gal(b1-4)Glc6S,-0.263
same,glycan array binding signal (z-score),Gal(b1-4)GlcNAc,-0.473
same,glycan array binding signal (z-score),[8],-0.225
same,glycan array binding signal (z-score),[9],-0.304
same,glycan array binding signal (z-score),[10],-0.303
same,glycan array binding signal (z-score),[11],-0.301
same,glycan array binding signal (z-score),[12],-0.095
same,glycan array binding signal (z-score),[13],-0.19
same,glycan array binding signal (z-score),[14],-0.152
same,glycan array binding signal (z-score),[15],-0.24
same,glycan array binding signal (z-score),[16],-0.363
same,glycan array binding signal (z-score),[17],-0.25
same,glycan array binding signal (z-score),Gal3S(b1-3)GalNAc,-0.08
same,glycan array binding signal (z-score),Gal3S(b1-3)GlcNAc,-0.242
same,glycan array binding signal (z-score),[18],-0.214
same,glycan array binding signal (z-score),Gal3S(b1-4)Glc,-0.299
same,glycan array binding signal (z-score),Gal3S(b1-4)Glc6S,0.639
same,glycan array binding signal (z-score),Gal3S(b1-4)GlcNAc,-0.086
same,glycan array binding signal (z-score),Gal3S(b1-4)GlcNAc6S,0.732
same,glycan array binding signal (z-score),Gal3S6S(b1-4)GlcNAc,0.3
same,glycan array binding signal (z-score),Gal3S6S(b1-4)GlcNAc6S,6.21
same,glycan array binding signal (z-score),Gal4S(b1-4)GlcNAc,-0.094
same,glycan array binding signal (z-score),Gal4S6S(b1-4)GlcNAc,0.422
same,glycan array binding signal (z-score),Gal6S(b1-4)Glc,-0.177
same,glycan array binding signal (z-score),Gal6S(b1-4)Glc6S,0.133
